For assay [1], the system named is P. aeruginosa PAO1p. As to the kind of experiment: Antibacterial activity of PSP3gp10 and PKPSP3gp10 with and without EDTA (30 minutes, colony count). The assay is classed as cell-based, Pseudomonas aeruginosa. Particulars: 0.5 mM EDTA, no endolysin, 30 minutes.
For assay [2], the system named is P. aeruginosa PAO1p. The assay is classed as cell-based, Pseudomonas aeruginosa.
Assay [3] deals with P. aeruginosa PAO1p. Description: Antibacterial activity of P2gp09 and PKP2gp09 with and without EDTA (30 minutes, colony count). Format: cell-based, Pseudomonas aeruginosa. To be noted: 0.5 mM EDTA, no endolysin, 30 minutes.
The subject of assay [4] is P. aeruginosa PAO1p cells. Description: Antibacterial activity of phiKZgp144 variants with different polycationic peptide stretches (colony count after 1 hour).
In assay [5] the test system is P. aeruginosa PAO1p. Format: cell-based, Pseudomonas aeruginosa. To be noted: 100 μg/ml undialyzed protein, 1 hour, room temperature.
Assay [6] concerns P. aeruginosa PAO1p cells. Description: Antibacterial activity of unmodified and modified phiKZgp144 and ELgp188 (colony count after 1 hour). Format: cell-based, Pseudomonas aeruginosa. Particulars: 1 hour.
For assay [7], the system named is Acinetobacter baumannii DSMZ 30007. The assay is classed as cell-based. Particulars: 100 μg/ml undialyzed protein, 1 hour, room temperature.
Where [8] appears, read: 1.313 μM endolysin, no EDTA, 30 minutes.
[9] abbreviates: exponentially growing cells, 100 μg/ml undialyzed protein, room temperature.

Where two headings read alike, the source gives them in different places. Bounds are passed on as bounds.

With `O=C([O-])CN(CCN(CC(=O)[O-])CC(=O)O)CC(=O)O.[Na+].[Na+]` [EDTA, reference compound], the “relative inactivation in logarithmic units (log10N0/Ni)” value (“relative inactivation … (log10N0/Ni)” below) in the assay on P. aeruginosa PAO1p [1] was 0.146 +/− 0.002 logarithmic units; with P. aeruginosa PAO1p [2] (0.5 mM EDTA, no endolysin, 30 minutes), 0.130 +/− 0.023 logarithmic units; with P. aeruginosa PAO1p [3] it was 0.330 logarithmic units.

As to “OBPgpLYS: SEQ ID NO: 7: unmodified modular endolysin of 328 amino acid residues originating from Pseudomonas putida phage OBP”, the “relative inactivation … (log10N0/Ni)” value in the assay on P. aeruginosa PAO1p [2] is 4.357 +/− 1.857 logarithmic units; with P. aeruginosa PAO1p [2] (setting [8]), 2.531 +/− 0.173 logarithmic units.

For the molecule “PKOBPgpLYS: SEQ ID NO: 61: OBPgpLYS (SEQ ID NO: 7) with N-terminal peptide stretch KRKKRKKRK (SEQ ID NO: 11)”, the “relative inactivation … (log10N0/Ni)” value with P. aeruginosa PAO1p [2] is on record as greater than 5.687 logarithmic units; in the assay with P. aeruginosa PAO1p [2] (setting [8]), 3.079 +/− 0.015 logarithmic units.

On to “phiKZgp144: SEQ ID NO: 1: unmodified modular endolysin originating from Pseudomonas aeruginosa phage φKZ [reference compound]”, for which the “reduction of cell numbers / antimicrobial effect (in words)” value in assay [4] (100 μg/ml) is recorded as “does not reduce cell numbers significantly”. For the same molecule, the “Reduction [%] (relative inactivation)” value in assay [4] (100 μg/ml undialyzed protein, room temperature) was found to be 0%; in the assay with P. aeruginosa PAO1p [5], 0%; in assay [7], 0%. Moreover, in assay [6] (100 μg/ml, student's t-test, α=0.05), the “reduction of cell numbers compared to the negative control (in words)” value was “do not reduce cell numbers significantly”. In assay [6] (setting [9]), the “antibacterial activity as relative inactivation (%)” value is reported as 0 ± 15%. Moreover, the “antibacterial activity in logarithmic units (log10N0/Ni)” value in assay [6] (setting [9]) stood at 0.00 ± 0.06 log.

B1: KRK9_smi01: SEQ ID NO: 75: modified variant of smi01 with peptide stretch KRKKRKKRK (SEQ ID NO: 11) (protein)
chain: AMGSKRKKRKKRKEYDMILKFGSKGDAVATLQKQLAKMGYKGVKDKPLSVDGHFGESTEFAVIQLQRKFGLVADGKVGDKTRQALAGDSVSKFLKDEDYKKAAIRLKVPELVIRVFGAVEGLGVGFLPNGKAKILFERHRMYFYLCQALGKTFANSQVKITPNIVNTLTGGYKGDAAEYTRLSMAINIHKESALMSTSWGQFQIMGENWKDLGYSSVQEFVDQQQLNEGNQLEAFIRFIEWKPGLLEALRKQDWDTVFTLYNGKNYKKLGYQAKFQKEWDHLEPIYREKTAA
modifications: smi01_KRK9
As for B1, the “Reduction [%] (relative inactivation)” value in assay [7] turned out to be 50%.

Values taken from patent US9809808B2, “Antimicrobial agents” (KATHOLIEKE UNIVERSITEIT LEUVEN K.U. LEUVEN R&D, priority 2008, dated 2017).
